Reference: PubChem BioAssay AID686978 (National Center for Advancing Translational Sciences (NCATS), 2013)
Values joined by “and” are separate entries in the source; they are usually repeats but may differ in a detail not shown here. Equal entries are not always repeated. About 64,000 (15%) of roughly 420,000 compounds were called active. This list was built around the results that the source calls inconclusive (neither active nor inactive); the mix of calls is not that of the screen. Calls follow the shape of the dose curve; as a rule, active = well fitted inhibition curve with a large enough effect; inconclusive = small, poorly fitted or top-dose-only effect; inactive = flat fitted curve, though single readings scatter. Potencies of inconclusive entries are doubtful fits and often do not repeat.

Test: qHTS for Inhibitors of human tyrosyl-DNA phosphodiesterase 1 (TDP1): qHTS in cells in absence of CPT; also: nearly all actives have a fitted effect of over 55% in size
Settings: DT40 Tdp1-/- hTDP1 cells, no CPT, ATP luminescence, 48 h; activity change, negative = growth inhibition: at 46.2 µM (top of the series) unless noted
Summary of the method: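 Stably hTDP1-transfected Tdp1-null chicken DT40 cells were treated with library compounds minus camptothecin and grown for at least 48 hr at 37 °C, after which cellular ATP was quantified by luminescence.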
% is scaled to controls: 0 for no effect and ±100 for the full control effect; potency is read from the fitted curve at half-maximal effect; tags tell the direction and shape of the fitted curve.

Row | SMILES | Potency | activity change, negative = growth inhibition
1 | CN(C)S(=O)(=O)n1cc(/C=C(\NC(=O)c2ccccc2F)C(=O)NCCN2CCOCC2)c2ccccc21 | active: 11.6 µM | –
2 | COc1ccc(C(C(=O)NCc2ccccc2)N(Cc2ccco2)C(=O)c2snc(C(N)=O)c2N)cc1 (centres undefined) | inconclusive: 23.1 µM [inhibitor, single point] | –
3 | Cn1c(=O)[nH]c(=O)c2c1nc(N1CCC(Cc3ccccc3)CC1)n2Cc1ccccc1 | inconclusive: 29.1 µM [inhibitor, single point] | –
4 | O=C(NC(=S)Nc1ccccc1N1CCCCC1)c1ccccc1 | active: 25.9 µM | –
5 | Cc1nnc(NC(=O)C2CCCCC2)s1 | – | inactive: -3.64%
6 | COc1ccc(S(=O)(=O)N2CCN(C(=O)C3CC3)CC2)cc1 | – | inactive: -6.44%
7 | C[C@H](O)[C@@H]1CN2CCc3c([nH]c4ccccc34)[C@@H]2C[C@@H]1N(C)C(=O)NC1CCCCC1 | inconclusive: 16.4 µM [inhibitor, partial curve] | –
8 | Cc1cc(N)n(-c2ccccc2)n1 | – | inactive: 1.6%
9 | COc1ccc(N/N=C(/C#N)S(=O)(=O)c2nsc(C)c2C#N)cc1 | inconclusive: 18.4 µM [inhibitor, single point] | –
10 | C=CCNC(=S)NNC(=O)c1ccc(=O)n(Cc2ccc(Cl)cc2Cl)c1 | inconclusive: 25.9 µM [inhibitor, single point] | –
11 | O=C(c1ccco1)N1CCC(c2nc(-c3ccc(F)cc3)no2)CC1 | inconclusive: 29.1 µM [inhibitor, single point] | –
12 | COc1ccc(CCNC(=O)C23CN(Cc4ccccc4)CC2C(c2ccc([N+](=O)[O-])cc2)=NO3)cc1 (centres undefined) | inconclusive: 18.4 µM [inhibitor, single point] | –
13 | COc1ccc(-c2nc(SCc3cc(=O)c4cc(C)ccc4[nH]3)n[nH]2)cc1 | – | inactive: -17.5%
14 | CS(=O)(=O)c1ncc(Cl)c(C(=O)Nc2ccc(OC(F)F)cc2)n1 | active: 1.16 µM | –
15 | CCc1nc2ccccc2n1Cc1ccccc1OC | inconclusive: 18.4 µM [inhibitor, single point] | –
16 | CCN(CC(=O)Nc1ccc(NC(C)=O)cc1)C(=O)c1cc(C)on1 | – | inactive: 17.6%
17 | COc1cc2ccc(C(C)=NNC(N)=S)cc2cc1OC | active: 14.6 µM | –
18 | COc1ccc(NC(=O)c2ccc3c(SCC(=O)O)c4c(nc3c2)CCC4)c(OC)c1 | – | inactive: -0.883%
19 | CC1CCCCN1C(=O)c1cc(Cl)ccc1[N+](=O)[O-] (centres undefined) | inconclusive: 4.61 µM [inhibitor, full curve, poor fit] | –
20 | CNC(=O)c1ccc(N(Cc2ccccc2C)S(C)(=O)=O)cc1 | – | inactive: 2.53%
21 | COc1ccc(OC)c(N(CC(=O)NCCSCc2ccco2)S(=O)(=O)c2ccc(OC)c(OC)c2)c1 | active: 16.4 µM | –
22 | c1ccc(Cn2nnc3c(N4CCN(Cc5ccc6c(c5)OCO6)CC4)ncnc32)cc1 | inconclusive: 29.1 µM [inhibitor, single point] | –
23 | Cc1cc(C)nc(NC(=O)/C=C/c2ccccc2Cl)c1 | inconclusive: 16.4 µM [inhibitor, single point] | –

Row | SMILES | Potency | activity change, negative = growth inhibition
24 | Cc1ccccc1C(=O)Nc1c(C)nc(Nc2ccccc2)nc1Nc1ccccc1 | inconclusive: 29.1 µM [inhibitor, single point] | –
25 | COc1ccc(-c2noc(-c3ccccc3C(=O)Nc3cccnc3)n2)cc1 | inconclusive: 29.1 µM [inhibitor, single point] | –
26 | O=C(N/N=C/C=N/NC(=O)c1ccco1)c1ccco1 | – | inactive: -0.204%
27 | CCOCCCNC(=O)C(c1ccc(OC)cc1)N(Cc1ccc2c(c1)OCO2)C(=O)c1ccccc1O (centres undefined) | inactive and inconclusive: 29.1 µM [inhibitor, single point] | –
28 | COc1ccc(C(=O)O)cc1S(=O)(=O)N1CCCc2ccccc21 | – | inactive: -2.67%
29 | CC1(c2nnnn2-c2ccc3c(c2)OCCO3)CCC(=O)N1Cc1cccc(C(F)(F)F)c1 (centres undefined) | inconclusive: 18.4 µM [inhibitor, partial curve] | –
30 | O=c1oc2ccccc2c(Nc2ccc3ccccc3c2)c1[N+](=O)[O-] | inconclusive: 29.1 µM [inhibitor, single point] | –
31 | N/C(=N\OC(=O)c1ccc([N+](=O)[O-])cc1)c1ccccn1 | – | inactive: 6.67%
32 | Cc1ccc2c(Cl)c(C(=O)NCC(c3ccco3)N3CCCC3)sc2c1 (centres undefined) | inconclusive: 25.9 µM [inhibitor, single point] | –
33 | CCCn1c(C)cc(/C=C(\C#N)C(=O)OCC(=O)Nc2cccc(S(N)(=O)=O)c2)c1C | inconclusive: 18.4 µM [inhibitor, single point] | –
34 | CC(=O)Nc1ccc(NC(=O)c2c([N+](=O)[O-])c(C(C)(C)C)nn2C)cc1 | inconclusive: 9.2 µM [inhibitor, partial curve] | –
35 | Cc1ccc(Nc2nc(-c3ccccc3)cs2)nc1 | inconclusive: 29.1 µM [inhibitor, single point] | –
36 | O=C(COC(=O)c1ccc([N+](=O)[O-])cc1)Nc1cccnc1Cl | – | inactive: 0.911%
37 | O=C(c1sccc1Br)N1CCN(Cc2ccc3c(c2)OCO3)CC1 | inconclusive: 16.4 µM [inhibitor, partial curve] | –
38 | CCN1CCN(CC(=O)Nc2ccc(C)cc2C)C(=O)C1=O | – | inactive: -13.1%
39 | COC(=O)Cn1c(C)c(/C=C/c2cc[n+](C)cc2)c2ccccc21 | active: 16.4 µM | –
40 | COc1cc(/C=C/C(=O)OCC(=O)Nc2ccc(S(=O)(=O)N3CCCC3)cc2)ccc1O | inconclusive: 18.4 µM [inhibitor, single point] | –
41 | CN(C)CCNC(=O)c1cc2sc3ccccc3c2s1 | active: 23.1 µM | –
42 | CN(CC(=O)Nc1ccc(Cl)c(C(F)(F)F)c1)C(=O)CCCNC(=O)c1ccc(Cl)cc1 | active: 14.6 µM | –
43 | COc1cccc(CNCCSc2nnnn2C)c1OCc1ccccc1F | inconclusive: 29.1 µM [inhibitor, single point] | –
44 | O=C(O)c1cccc(S(=O)(=O)Nc2ccc(O)cc2Sc2nc3ccccc3s2)c1 | – | inactive: -9.84%
45 | O=[N+]([O-])c1ccc(Cl)c(S(=O)(=O)/N=C(/c2ccccc2)N2CCOCC2)c1 | – | inactive: 0.409%
46 | Cc1cc(C(=O)N/N=C/c2cc(Br)ccc2OC(=O)c2ccccc2Cl)n[nH]1 | active: 4.61 µM | –

Row | SMILES | Potency | activity change, negative = growth inhibition
47 | CN(C)C=Nc1ncc2c3ccccc3n(Cc3ccccc3)c2c1C#N | inconclusive: 9.2 µM [inhibitor, partial curve, poor fit] | –
48 | O=C(Nc1ccc(Cl)cc1F)c1cc(S(=O)(=O)NCc2ccc3c(c2)OCO3)ccc1F | – | inactive: -7.72%
49 | COc1ccc(C2CC(c3ccccc3F)=NN2c2ccc(S(N)(=O)=O)cc2)cc1 (centres undefined) | – | inactive: -26.8%
50 | CCOc1ccc(C(=O)Nc2cccc(OCc3cc(=O)n4cc(C)sc4n3)c2)cc1 | – | inactive: -17.1%
51 | CN(Cc1ccccc1)c1ccc(C(CC(N)=O)NC(=O)c2ccccc2)cc1[N+](=O)[O-] (centres undefined) | active: 16.4 µM | –
52 | O=[N+]([O-])c1cc([N+](=O)[O-])c(Oc2c(F)cc(F)cc2F)cc1NN1CCCCC1 | inconclusive: 29.1 µM [inhibitor, single point] | –
53 | CCCCn1cc(S(=O)(=O)c2cccc(C)c2)c(=O)c2cc(F)c(N3CCOCC3)cc21 | inconclusive: 29.1 µM [inhibitor, single point] | –
54 | CCOc1ccc(NC(=O)C2CCN(c3nnnn3-c3ccccc3)CC2)cc1 | – | inactive: -25.3%
55 | COC(=O)c1ccc(N2CCOCC2)c(NC(=O)c2ccco2)c1 | – | inactive: -15.3%
56 | O=C(Nc1ccc2c(c1)OCCO2)C(c1ccnc2ccccc12)N1CCN(c2ccc(F)cc2)CC1 (centres undefined) | inconclusive: 29.1 µM [inhibitor, single point] | –
57 | COc1cccc(CNC(=O)N2CCN(c3ccccc3)CC2)c1 | inconclusive: 25.9 µM [inhibitor, single point] | –
58 | C[C@H](O)CO[C@H]1[C@H]2O[C@H]3[C@H](O)[C@@H](O)[C@@H](O[C@H]4[C@H](O)[C@@H](O)[C@@H](O[C@H]5[C@H](O)[C@@H](O)[C@@H](O[C@H]6[C@H](O)[C@@H](OC[C@H](C)O)[C@@H](O[C@H]7[C@H](O)[C@@H](OC[C@H](C)O)[C@@H](O[C@H]8[C@H](O)[C@@H](O)[C@@H](O[C@@H]([C@@H]1O)[C@@H](CO)O2)O[C@@H]8CO)O[C@@H]7CO)O[C@@H]6CO)O[C@@H]5CO)O[C@@H]4CO)O[C@@H]3CO | – | inactive: -4.77%
59 | Nc1nc(N)c(N=O)c(N)n1 | – | inactive: -4.48%
60 | CC1CCCCN1CC(=O)NCc1ccc2c(c1)OCO2 (centres undefined) | – | inactive: -10.4%
61 | CCc1ccc(NC(=O)CSc2nc3n[nH]c(C)c3c(=N)n2-c2cccc(OC)c2)cc1 | active: 25.9 µM | –
62 | CN(Cc1ccccc1)C(=O)c1ncn(C)c1C(=O)N(C)Cc1ccccc1 | – | inactive: -24.8%
63 | CN1CCN(c2ccc(NC(=O)c3ccc(-c4cccc([N+](=O)[O-])c4)o3)cc2)CC1 | inconclusive: 29.1 µM [inhibitor, single point] | –
64 | CCCCn1c(=N)n(CC(=O)O)c2ccccc21 | – | inactive: -5.03%
65 | CCN(C[C@H]1N[C@@](CC)(C(=O)OC)[C@H]2C(=O)N(C)C(=O)[C@@H]12)S(=O)(=O)c1ccc(-c2ccccc2)cc1 | inconclusive: 16.4 µM [inhibitor, single point] | –
66 | COc1ccc(C2CC(c3ccc4ccccc4c3)=NN2C(=O)CN2CCC(C(N)=O)CC2)cc1 (centres undefined) | inconclusive: 20.6 µM [inhibitor, single point] | –
67 | CCc1ccc(Nc2cnn(-c3nc4ccccc4s3)c(=O)c2Cl)cc1 | inconclusive: 18.4 µM [inhibitor, single point] | –
68 | CCCCOC1CC(c2ccc(OCc3ccc(OC)cc3)c(OC)c2)N(C)O1 (centres undefined) | inconclusive: 18.4 µM [inhibitor, partial curve] | –
69 | O=Cc1c(NCc2ccc(Cl)cc2)c2ccccc2[nH]c1=O | – | inactive: -3.1%
